Here are results for 15 molecules from patent US6800434B2, “Peptides as NS3-serine protease inhibitors of hepatitis C virus” (priority 2000, dated 2004).

The structures appear in SMILES notation. Starred links: 1 amine or outer side, 2 acyl side, 3 side chain; linkers in the order of their positions; H or OH if unused. Non-standard residues stand in square brackets, D forms with d. Residues, ends and D or L forms follow the SMILES beside them. ξ: configuration not given here. *: point of attachment. X30 = COc1ccc(NC(=O)N[C@@H]2C[C@@H](C(=O)[*:2])N([*:1])C2)cc1; Pro(trans-4-NH2) = O=C([C@@H]1C[C@@H](N[*:3])CN1[*:1])[*:2]; X16 = O=C([C@@H]1C[C@@H](CNS(=O)(=O)c2ccccc2)CN1[*:1])[*:2]; X28 = O=C([C@@H]1C[C@@H](NS(=O)(=O)c2ccccc2)CN1[*:1])[*:2]; X21 = O=C(NC[C@@H]1C[C@@H](C(=O)[*:2])N([*:1])C1)c1ccccc1; X5 = O=C(N[C@@H]1C[C@@H](C(=O)[*:2])N([*:1])C1)OCc1ccccc1; Pro(trans-4-Ph) = O=C(O)[C@@H]1C[C@@H](c2ccccc2)CN1; X4 = O=C([C@@H]1C[C@@H](CN[*:3])CN1[*:1])[*:2]; Benzoyl(3-OPh) = O=C(c1cccc(Oc2ccccc2)c1)*; X1 = CCC[C@H](N[*:1])C(=O)C(=O)[*:2]; Hyp = O=C(O)[C@@H]1C[C@@H](O)CN1; X3 = CCCC(N[*:1])C(=O)C(=O)[*:2]; Chg = N[C@H](C(=O)O)C1CCCCC1; ξE = NC(CCC(=O)O)C(=O)O; ξV = CC(C)C(N)C(=O)O; Bn = c1ccc(C*)cc1; OtBu = CC(C)(C)O*; X18 = C=CCN(C)*; tBu = CC(C)(C)*; OAll = C=CCO*

This assay has as its target Recombinant heterodimeric HCV NS3/NS4A protease (strain 1a) (Hepatitis C virus genotype 1a, UniProt P27958). Nature of the assay: biochemical. Particulars: Ki* Range.
The Ki is the dissociation constant of the complex between target and ligand, obtained from inhibition or displacement. With `CCC[C@H](NC(=O)[C@@H]1C[C@@H](NC(=O)c2cccc(Oc3ccccc3)c2)CN1C(=O)[C@@H](NC(=O)[C@@H](NC(=O)[C@H](CCC(=O)O)NC(=O)[C@H](CCC(=O)O)NC(C)=O)C(C)C)C(C)C)C(=O)C(=O)NCC(=O)O` [Ac-EEVV-P(4t-NHBzl(3-OPh))-nV-(CO)-G-OH] (Ac-EEVV[Pro(trans-4-NH2)](Benzoyl(3-OPh))[X1]G-OH), the Ki was in the range of 1 to 100 nM.

`C=CCOC(=O)CNC(=O)C(=O)C(CCC)NC(=O)[C@@H]1C[C@@H](OC(C)(C)C)CN1C(=O)[C@@H](NC(=O)[C@@H](NC(=O)[C@H](CCC(=O)OC(C)(C)C)NC(=O)[C@H](CCC(=O)OC(C)(C)C)NC(C)=O)C(C)C)C(C)C` (stereo partly drawn) [Compound 40] (Ac-E(OtBu)E(OtBu)VV[Hyp](tBu)[X3]G-OAll): the Ki lay in the range of 1 to 100 nM.

Regarding `CCC[C@H](NC(=O)[C@@H]1C[C@@H](CNC(=O)c2cccc(Oc3ccccc3)c2)CN1C(=O)[C@@H](NC(=O)[C@@H](NC(=O)[C@H](CCC(=O)O)NC(=O)[C@H](CCC(=O)O)NC(C)=O)C(C)C)C(C)C)C(=O)C(=O)NCC(=O)O` [Ac-Glu-Glu-Val-Val-Pro(4t-MeNHBzl(3-OPh))-nVal-(CO)-Gly-OH] (Ac-EEVV[X4](Benzoyl(3-OPh))[X1]G-OH), the Ki is 1 to 100 nM.

Regarding `CCCC(NC(=O)[C@@H]1CCCN1C(=O)[C@H](CC(C)C)NC(=O)[C@@H](NC(=O)[C@H](CCC(=O)O)NC(=O)[C@H](CCC(=O)O)NC(C)=O)C(C)C)C(=O)C(=O)NCC(=O)O` (stereo partly drawn) [Ac-EEVLP-nV-(CO)-G-OH] (Ac-EEVLP[X3]G-OH), the Ki fell in the range of 101 to 999 nM.

`CCC[C@H](NC(=O)[C@@H]1C[C@@H](CNS(=O)(=O)c2ccccc2)CN1C(=O)[C@@H](NC(=O)[C@@H](NC(=O)[C@H](CCC(=O)O)NC(=O)[C@H](CCC(=O)O)NC(C)=O)C(C)C)C(C)C)C(=O)C(=O)NCC(=O)O` [Ac-EEVV-P(4t-MeNHSO2Ph)-nV-(CO)-G-OH] (Ac-EEVV[X16][X1]G-OH): the Ki is 1 to 100 nM.

With `CCC[C@H](NC(=O)[C@@H]1C[C@@H](CNC(=O)c2ccccc2)CN1C(=O)[C@@H](NC(=O)[C@@H](NC(=O)[C@H](CCC(=O)O)NC(=O)[C@H](CCC(=O)O)NC(C)=O)C(C)C)C(C)C)C(=O)C(=O)NCC(=O)O` [Ac-EEVV-P(4t-MeNHCOPh)-nV-(CO)-G-OH] (Ac-EEVV[X21][X1]G-OH), the Ki was 1 to 100 nM.

With `CCC[C@H](NC(=O)[C@@H]1C[C@@H](c2ccccc2)CN1C(=O)[C@@H](NC(=O)[C@@H](NC(=O)[C@H](CCC(=O)O)NC(=O)[C@H](CCC(=O)O)NC(C)=O)C(C)C)C1CCCCC1)C(=O)C(=O)NCC(=O)O` [Compound 85] (Ac-EEV[Chg][Pro(trans-4-Ph)][X1]G-OH), the Ki was 1 to 100 nM.

`CCC[C@H](NC(=O)[C@@H]1CCCN1C(=O)[C@@H](NC(=O)[C@@H](NC(=O)[C@H](CCC(=O)O)NC(=O)[C@H](CCC(=O)O)NC(C)=O)C(C)C)C(C)C)C(=O)C(=O)N[C@@H](COCc1ccccc1)C(=O)NC` [Compound 23] (Ac-EEVVP[X1]S(Bn)-NHMe): the Ki lay in the range of 1000 to 10000 nM.

With `CCC[C@H](NC(=O)[C@@H]1C[C@@H](NS(=O)(=O)c2ccccc2)CN1C(=O)[C@@H](NC(=O)[C@@H](NC(=O)[C@H](CCC(=O)O)NC(=O)[C@H](CCC(=O)O)NC(C)=O)C(C)C)C(C)C)C(=O)C(=O)NCC(=O)O` [Ac-EEVV-P(4t-NHSO2Ph)-nV-(CO)-G-OH] (Ac-EEVV[X28][X1]G-OH), the Ki is 1 to 100 nM.

`C=CCOC(=O)CNC(=O)C(=O)C(CCC)NC(=O)[C@@H]1C[C@@H](NC(=O)OCc2ccccc2)CN1C(=O)C(NC(=O)C(NC(=O)C(CCC(=O)OC(C)(C)C)NC(=O)C(CCC(=O)OC(C)(C)C)NC(C)=O)C(C)C)C(C)C` (stereo partly drawn) [Compound 21] (Ac-[ξE](OtBu)[ξE](OtBu)[ξV][ξV][X5][X3]G-OAll): the Ki lay in the range of 1000 to 10000 nM.

On to `CCC[C@H](NC(=O)[C@H](CSC)NC(=O)[C@@H](NC(=O)[C@@H](NC(=O)[C@H](CCC(=O)O)NC(=O)[C@H](CCC(=O)O)NC(C)=O)C(C)C)C(C)C)C(=O)C(=O)NCC(=O)O` [Ac-EEVV-C(Me)-nV-(CO)-G-OH] (Ac-EEVVC(Me)[X1]G-OH), for which the Ki lay in the range of 1 to 100 nM.

As for `CCC[C@H](NC(=O)[C@@H]1C[C@@H](NC(=O)Nc2ccc(OC)cc2)CN1C(=O)[C@@H](NC(=O)[C@@H](NC(=O)[C@H](CCC(=O)O)NC(=O)[C@H](CCC(=O)O)NC(C)=O)C(C)C)C(C)C)C(=O)C(=O)NCC(=O)O` [Ac-EEVV-P(4t-UreaPh(4-OMe))-nV-(CO)-G-OH] (Ac-EEVV[X30][X1]G-OH), the Ki was in the range of 1 to 100 nM.

Consider `C=CCOC(=O)CNC(=O)C(=O)[C@H](CCC)NC(=O)[C@@H]1CCCN1C(=O)[C@@H](NC(=O)[C@@H](NC(=O)[C@H](CCC(=O)O)NC(=O)[C@H](CCC(=O)O)NC(C)=O)C(C)C)C(C)C` [Ac-EEVVP-nV-(CO)-G-Oallyl, Ac-Glu-Glu-Val-Val-Pro-nVal(CO)-Gly-Oallyl] (Ac-EEVVP[X1]G-OAll), for which the Ki lay in the range of 1 to 100 nM.

With `C=CCN(C)C(=O)C(=O)C(CCC)NC(=O)[C@@H]1CCCN1C(=O)[C@@H](NC(=O)[C@@H](NC(=O)[C@H](CCC(=O)O)NC(=O)[C@H](CCC(=O)O)NC(C)=O)C(C)C)C(C)C` (stereo partly drawn) [Compound 10] (Ac-EEVVP[X3]-X18), the Ki is 1000 to 10000 nM.

Regarding `CCCC(C(=O)C(=O)NCC(=O)O)N1CC[C@H](NC(=O)[C@@H](NC(=O)[C@@H](NC(=O)[C@H](CCC(=O)OC(C)(C)C)NC(=O)[C@H](CCC(=O)OC(C)(C)C)NC(C)=O)C(C)C)C(C)C)C1=O` (stereo partly drawn) [Compound 46], the inhibitory constant (Ki) lay within 1000 to 10000 nM.
